To fix the notation:
B1: traf2_out_11_104_640 (protein)
chain: LTREQAREFNDFAMEKEDEARAVAAALAAQLEAAGETEAAARVRAALAHPGSGISTFRNLLEDLRPELSPEAAAAADAAIAELRALQAEVSKKLNELEKK
B2: traf2_out_11_104_632 (protein)
chain: KKKEALNAYVDAMMEEAKKSMEEALKRLEELVPEAKEEIAKIRELIEKGRFGAAREAMYEALLKHFSPEEAEKIMEELLEKHEKRASKVHKEMEKKIEEA
B3: traf2_out_20_38_2020 (protein)
chain: SAEEEEERKLEELIRHAREAYDKAEKWVAELQAQGKSVEEIAEAAKKKVKELLTKHGLEEEAKILIEEIDRVLDSPDALRLIVQILARAETLVFQKELQK
B4: traf2_out_11_155_712 (protein)
chain: EKKLEIYQELVDKNMEIADEALKKLEELIEEIEKEDPEVAAELRAVLEANKDAGITTKLLLAERVLRKAGYEEKAKKVREILEEAQRKSNEIAKEAEEKL
B5: traf2_out_11_169_773 (protein)
chain: EEAEKNRKINDFALELNDEAKEKLKEEALKLAEEEGLDVEEIKKIFEKNKNKSLSAVASALINYFNSKGKEEAAKKVLEKYEELKEEINKKSSEFIKSLE
B6: traf2_out_6_156_2379 (protein)
chain: KAEEILKKAEEEIKEQIKKLAAASEEKKIAYISKIAGAVYRALQALREAGASVEELKEAGERLRKVAEEEAKKAGLDEDTINLLLASIDAVVEVALEEAK
B7: traf2_out_6_156_2380 (protein)
chain: MKEEILEEAKEKIKELIKKLAEASEEKKIKYISEIAGAVYRALQRLREAGASVEEIEEAVRELKETAEEEAKKAGLDEDTRNLLLGSINAVGEVALREAR
B8: traf2_out_17_162_1487 (protein)
chain: EELERRLEELEKRLEELEKRLEELKKKLENIENLSKEELTDLLVEVSEARREARRLAEELRELREETGDEELEELIERAERLAEELQRLANKIYKELEKK
B9: traf2_out_9_132_2601 (protein)
chain: SPEEERRARTEALLAEDRADPATRGHYLAVDFALELSRIAGEGLDDLKTKSVAEVTAAFEAAADALLARYTAQDPSIRTTLTTIREQELARFLEEVERAQ
B10: traf2_out_14_154_1272 (protein)
chain: DELFDELEYHSRLSRHYEAIVDAYETEGREAAAKMAKETTADLIARYPEKAAEFKAELEEILAALNGTEEEQAAMVAKLKAESEEHKKKARELFKKIEEE
B11: traf2_out_6_156_2415 (protein)
chain: MVEKIFEETLKKIKEEIKKLSEASEEKKIKYISDIAGTFYKALQKLREAGASLEEIKEFSKRLLEETKKLAKEAGLPEETINLLLSSLTAVANVAIAEAK
B12: traf2_out_18_3_1904 (protein)
chain: KEEKRKELSDKIDEIEDEARAYARRVLDELRARHPEVAAELDALRAVLEAGGGAFGVLEALAELARRLGEEELAEEIERFIREKRKEMQELVDKYEELIK
B13: traf2_out_11_169_853 (protein)
chain: EEKEKNRKIIDKALELTDEAKARLEEHALALAREAGLDEAEVRAIFAAHAGKSLSAVAAALIAWFRAQGKEDAAAAVEAKYEELKDEINKKMTAFLKELE
B14: traf2_out_17_162_1611 (protein)
chain: SELEEKLKRLEELLERLEKKLKELEEKLKNIDKLSKEELTDLLVEASEARREALEALEEIRKLKSLLDPELYERLSKRFEEIAEKFQRLANKFYKKLEEK
B15: traf2_out_20_38_2031 (protein)
chain: SEEEEEKKRLEEAIKVANDAYDRYTERFAALRAAGRTVEEMAAETRAEVRELLTAAGLEEEAEELIADIDLALGSPEAERLLVRILARAEALVWQKKKNE
B16: traf2_out_13_95_1097 (protein)
chain: SREVAERIMEIADRMLDEVLAILEELLAKAKAAGKLVEEVTEALRLAETRSINEAIHLLRELAKEHPEFAAEYEAAIARIEELRRRAGREVARILREEEE
B17: traf2_out_14_149_1264 (protein)
chain: SKVEEVAEEILRLLKEVLEAAEEYIRTGTEEARERLFKLIKEAAEKMRELGEEIGVYFSSVSRLEHLASQRDLPPEELLARLKEILERAEVTAEFLKKEA
B18: traf2_out_17_162_1615 (protein)
chain: MSIEEILKELEEELERLEKELEELEKKLEKIDELSEEELTDLLVEASEARRKALEAIEKLKELKGEIDEEVYERLLKRFEEIAERFQRIANKFYEKLLEK
B19: traf2_out_20_3_2237 (protein)
chain: EELKKKLEEELEKAEKLLKKIEPKLDPKTAAKLKELLKKAKEYLEKDYTEALVYLSEAKAAALAAAEAARAAGDEETAALLEELADALNKAMHYAYLIIE
B20: traf2_out_13_95_1203 (protein)
chain: EEEKTEKIREVTNAIADKLLDFADKTAEEVEKKTGNEEYKKKVLKALNGSGINAAIEVLRELAKEDPEHKEIYLEAAEKLEEKRRQAGKEVAKKLKEIEE
B21: traf2_out_17_162_1637 (protein)
chain: AAIEATLAALKAELEELKKEKKELEEKAKKIETLSKEELSDLIVEASEVIRRARQLIQRLDALKDQIDPETYAELKAEAEEIIEEAQRIAQKFLDAYEAK
B22: traf2_out_6_156_2383 (protein)
chain: EKEKILEETKKKIEEYIKELSKAPESKKIKYINKIVGTVYKGLLKLRELGASLEELKEFVEEIKEYINKELEKYNIDESTKNLILAGINAVGEVALREAE
B23: traf2_out_20_3_2119 (protein)
chain: KELEEELKKELEEAKKLLKEAAKLADKETAKVLKELEKKLEKSEKLSYSDRLVVVSEIRRTVLLLREEAKAKGKKELAKVLDEAADKLNKAAGLLMKIIE
B24: traf2_out_17_162_1515 (protein)
chain: SALEEELAKLEKELKKIEKELKELKEKLKDLDKMSKEELTDLLVEASEARRRALELAERLEELKPEIGEERAGKLIAEARKLAEELQKIANKIYKKLEEK
B25: traf2_out_17_178_1674 (protein)
chain: DKAAKRAEISALTDELIDLTEDTGTKLLALAEAEGTLTPEELALLRAALRSSSANTLLAVAEKLAPKLKTKAEAEALLKDFKEKKKELSKKIAEAYKEYE
B26: traf2_out_3_89_2308 (protein)
chain: MEERKKTIEEMEKQMEAYVKGFEKSAKFVAKQMLADGMSLDTLRGVLEAAKSALLEVLRETAKERGLSEEEIEKLLKKAEEELNKVVDEVVADAAAKRAA
B27: traf2_out_8_15_2547 (protein)
chain: EEEEAAERRRAKILEATDGDPASILNLARGYVRGAEIALERMKKSGEKDLYYGVVEALARDARITLDLLRELDPSLAPEADALDARIDAILAEAEKLKAE
B28: traf2_out_6_169_2481 (protein)
chain: MEEERLEKEAERHLKTAEELYEIAETIYKQVKENNDLENLDNYILAMETLLNAMERHYELAIEKLKELGKEEEAEEVEKKREERKKKMEEMIEEIKKLKE
B29: traf2_out_17_178_1685 (protein)
chain: TKEEQRAKISELTDKLIDLTEETGTRLLARARAEGTLSPEELAALEAARRAGSNRTFLALAERAAPRLRSAEEAAALLAEFKERARKLEKEIAAAYEKYE

Whole data set: some 1,800 sequences, median “median log2 fold change of GCK-ALFA target abundance (FLAG IP / Myc IP barcode read proportion)” near 0.14, cut for the lowest 2% near -0.84. Some of the results follow.

This is an account of results in the supplement of paper PMC12632987.

The target of the assay is T1, TRAF2, Q12933.
T1 chain: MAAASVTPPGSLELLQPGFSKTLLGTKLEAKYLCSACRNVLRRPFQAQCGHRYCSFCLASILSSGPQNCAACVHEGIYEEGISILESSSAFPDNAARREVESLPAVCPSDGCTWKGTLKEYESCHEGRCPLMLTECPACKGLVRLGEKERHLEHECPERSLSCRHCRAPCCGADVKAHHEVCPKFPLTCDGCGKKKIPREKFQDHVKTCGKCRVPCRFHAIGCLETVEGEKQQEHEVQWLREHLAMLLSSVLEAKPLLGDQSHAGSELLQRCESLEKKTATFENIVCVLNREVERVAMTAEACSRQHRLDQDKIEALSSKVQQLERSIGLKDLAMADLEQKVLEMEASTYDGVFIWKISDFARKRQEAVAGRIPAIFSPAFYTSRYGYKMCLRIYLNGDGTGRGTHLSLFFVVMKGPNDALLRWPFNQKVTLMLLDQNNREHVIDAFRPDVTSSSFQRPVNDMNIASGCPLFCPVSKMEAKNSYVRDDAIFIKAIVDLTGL
Nature of the assay: median log2 fold change of GCK-ALFA target abundance (FLAG IP / Myc IP barcode read proportion) (log2 ratio); each designed protein is fused to an ALFA-tag nanobody in HEK293 cells to bring the named protein to FLAG-tagged glucokinase (GCK); Myc marks an untargeted standard; higher = target protein stabilised (more abundant). To be noted: target protein: 3xFLAG-MCP-GCK-ALFA reporter; HEK293 landing pad (RPLP). Put shortly:
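The readout is target abundance, the per-binder median log2 ratio of FLAG to Myc barcode read proportions. It came from HEK293 landing-pad cells carrying a recombined ALFA-nanobody-fused binder library, induced with 2 μg mL^−1 doxycycline and transfected with a plasmid for a FLAG-tagged target and a Myc-tagged standard. After 48 h, lysates were immunoprecipitated with anti-FLAG and anti-Myc, and circular RNA barcodes were reverse transcribed, amplified and sequenced. Each barcode needed a proportion of at least 10^−7 in both replicates and each binder at least 3 barcodes per replicate, a pseudocount of 10^−6 was added, and the replicates were pooled.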
Turning to B1, the “median log2 fold change” value was 0.245. Consider B2, for which the “median log2 fold change” value is 0.177. To B3 belongs 0.159; to B4, 0.0718.

In the case of B5, the “median log2 fold change” value stood at 0.243. Regarding B6, the “median log2 fold change” value was determined as 0.106. With B7 the figure was 0.085; with B8, 0.163; with B9, 0.281. With B10, the “median log2 fold change” value is 0.19. With B11, the “median log2 fold change” value is -0.0291. On to B12, for which the “median log2 fold change” value is -0.105.

Turning to B13, the “median log2 fold change” value stood at 0.151.

As for B14, the “median log2 fold change” value is -0.0185. With B15 the figure was -0.852. To B16 belongs -0.695; to B17, 0.203; to B18, 0.252.

For B19, the “median log2 fold change” value amounted to 0.187.

As to B20, the “median log2 fold change” value is -0.0161. With B21 the figure was 0.269; with B22, -0.126. To B23 belongs -0.0522; to B24, 0.222.

Turning to B25, the “median log2 fold change” value was found to be 0.0887. With B26, the “median log2 fold change” value was -0.103. As for B27, the “median log2 fold change” value was -0.173. To B28 belongs 0.245; to B29, 0.171.
